Consider eight compounds from the supplement of paper PMC11880418.

Counter-ions that a name gives are not always drawn. The list shows a part of the results. The data scatter; read single values as rough.

Common to all, as to assay: ALDHbr (CSC) cell proportion score relative to DMSO vehicle (ratio to DMSO); breast (SUM159) / gastric (MKN45) / pancreatic (PANC1) / colon cancer lines; ALDHbr cells have high ALDH activity and are rich in cancer stem cells (CSC); higher = more CSC (ALDHbr) cells remaining
What all share (details): 10 µM; 72 h

Assay [1] concerns MKN45.
Assay [2] relates to PANC1.
The subject of assay [3] is SUM159.
The subject of assay [4] is T84.
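Further: High-content imaging of ALDEFLUOR-stained cells with Hoechst-labelled nuclei in 384-well plates, triplicate wells, scored as Z-score against 0.1% DMSO vehicle, negative meaning fewer ALDHbr cells.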

As for `COc1cc(N)c(Cl)cc1C(=O)NC1CCN(Cc2ccccc2)CC1` [Clebopride maleate], the ALDHbr in assay [1] amounted to 1.08; in assay [2] it was 0.662; in assay [3], 1.34; in assay [4], 0.819.

`CO/N=C(\C(=O)N[C@@H]1C(=O)N2C(C(=O)O)=C(COC(C)=O)CS[C@H]12)c1csc(N)n1` [Cefotaxime sodium salt]: the ALDHbr was 0.995 in assay [1], 0.9 in assay [2], 0.966 in assay [3] and 0.979 in assay [4].

For the compound `CC(C)NC[C@H](O)COc1ccc(CC(N)=O)cc1` [(S)-(-)-Atenolol], the ALDHbr was 0.975 in assay [1], 0.978 in assay [2], 1.07 in assay [3] and 0.829 in assay [4].

Consider `CCOc1ccc2c(c1)C(C)=CC(C)(C)N2` [Ethoxyquin], for which the ALDHbr was determined as 0.947 in assay [1], 0.905 in assay [2], 1.04 in assay [3] and 0.839 in assay [4].

Regarding `CO[C@H]1/C=C/O[C@@]2(C)Oc3c(C)c(O)c4c(O)c(c(/C=N/N5CCN(C6CCCC6)CC5)c(O)c4c3C2=O)NC(=O)/C(C)=C\C=C\[C@H](C)[C@H](O)[C@@H](C)[C@@H](O)[C@@H](C)[C@H](OC(C)=O)[C@@H]1C` [Rifapentine], the ALDHbr amounted to 1.22 in assay [1], 0.935 in assay [2], 0.715 in assay [3] and 0.801 in assay [4].

In the case of `O=C1Cc2cc(CCN3CCN(c4nsc5ccccc45)CC3)c(Cl)cc2N1` [Ziprasidone  Hydrochloride], the ALDHbr in assay [1] turned out to be 1.08; in assay [2], 0.566; in assay [3], 1.08; in assay [4], 1.07.

For `COc1ccccc1OCC(O)COC(N)=O` (configuration not stated) [Methocarbamol], the ALDHbr in assay [1] was found to be 1.07; in assay [2], 0.846; in assay [3], 1.1; in assay [4], 0.826.

As to `CN(CCCCCCCCCCN(C)C(=O)Oc1cccc([N+](C)(C)C)c1)C(=O)Oc1cccc([N+](C)(C)C)c1` [Demecarium bromide], the ALDHbr in assay [1] was determined as 1.04; in assay [2], 0.713; in assay [3] it was 1.6; in assay [4], 0.775.
